The list shows a part of the results.

In assay [1] the test system is HSkMC (human skeletal muscle cells). The experiment in a line: cytotoxicity call (relative viability < 0.9). The conditions noted are these: 10 µM.
Assay [2] concerns HepG2. The experiment in a line: cytotoxicity call (relative viability < 0.9). The following applies: 10 µM.
For assay [3], the system named is S. aureus RN4220. Nature of the assay: growth inhibition call (relative growth <= 0.2). The following applies: 50 µM.

For the compound `C[C@H](CO)N1C[C@H](C)[C@H](CN(C)Cc2ccccc2)OCc2ccccc2-c2c(n(C)c3ccccc23)C1=O`, the cytotoxicity call in assay [1] and in assay [2] was “inactive” in each case. In addition, the growth inhibition call in assay [3] is “inactive”.

For `Nc1ccn([C@@H]2O[C@H](CO)[C@H](O)[C@@H]2O)c(=O)n1`, the cytotoxicity call in assay [1] and in assay [2] was “inactive” each time. For the same compound, in assay [3], the growth inhibition call was “inactive”.

With `CC(C)Cc1nc2ccccc2[nH]1`, the cytotoxicity call in assay [1] and in assay [2] was “inactive” in each case. The growth inhibition call in assay [3] was “inactive”.

In the case of `C[C@@H]1CCCCO[C@H](CN(C)CC2CCCCC2)[C@H](C)CN([C@@H](C)CO)C(=O)c2cc(NS(=O)(=O)c3cccs3)ccc2O1`, the cytotoxicity call in assay [1] was “inactive”. The cytotoxicity call in assay [2] was “active”. Also, in assay [3], the growth inhibition call was “inactive”.

Turning to `C[C@@H]1CN([C@H](C)CO)C(=O)Cc2cc(NS(C)(=O)=O)ccc2O[C@@H]1CN(C)C(=O)Nc1ccccc1`, the cytotoxicity call in assay [1] and in assay [2] was “inactive” in each case. In addition, the growth inhibition call in assay [3] was “inactive”.

`Nc1ccc(-n2nn[nH]c2=S)cc1`: the cytotoxicity call in assay [1] and in assay [2] was “inactive” each time. In addition, the growth inhibition call in assay [3] is “inactive”.

Take `CC#CCOC(=O)C1=CCCN(C)C1`: the cytotoxicity call in assay [1] and in assay [2] was “inactive” each time. Besides, the growth inhibition call in assay [3] was “inactive”.

For the compound `CNC(=O)[C@H]1O[C@@H](n2cnc3c(NCc4cccc(I)c4)ncnc32)[C@H](O)[C@@H]1O`, the cytotoxicity call in assay [1] and in assay [2] was “inactive” throughout. Moreover, the growth inhibition call in assay [3] is “inactive”.

As to `COc1cc(-c2ccc(NN=C3C=Cc4c(S(=O)(=O)O)cc(S(=O)(=O)O)c(N)c4C3=O)c(OC)c2)ccc1NN=C1C=Cc2c(S(=O)(=O)O)cc(S(=O)(=O)O)c(N)c2C1=O`, the cytotoxicity call in assay [1] and in assay [2] was “active” in each case. The growth inhibition call in assay [3] was “inactive”.

`COC(=O)[C@H]1OC2(CCCC2)O[C@@H]1C(=O)OC`: the cytotoxicity call in assay [1] and in assay [2] was “inactive” in each case. For the same compound, the growth inhibition call in assay [3] was “inactive”.

On to `C[C@@H]1CN([C@@H](C)CO)C(=O)c2cc(C#CCN(C)C)cnc2O[C@@H]1CN(C)Cc1ccc2c(c1)OCO2`, for which the cytotoxicity call in assay [1] and in assay [2] was “inactive” throughout. Further, in assay [3], the growth inhibition call was “inactive”.

On to `COc1ccc(S(=O)(=O)Nc2ccc3c(c2)CC(=O)N([C@@H](C)CO)C[C@@H](C)[C@@H](CN(C)Cc2ccc(Cl)c(Cl)c2)O3)cc1`, for which the cytotoxicity call in assay [1] and in assay [2] was “active” each time. Further, the growth inhibition call in assay [3] is “inactive”.

Take `Cc1cccnc1[C@@H](NC(=O)C1CCN(CCOc2ccc(Cl)cc2Cl)CC1)c1ccc(Cl)cc1`: the cytotoxicity call in assay [1] and in assay [2] was “inactive” in each case. Besides, the growth inhibition call in assay [3] was “active”.

In the case of `C[C@@H]1CN([C@H](C)CO)C(=O)c2cc(NS(=O)(=O)c3ccc(F)cc3)ccc2O[C@@H]1CN(C)CC1CC1`, the cytotoxicity call in assay [1] and in assay [2] was “inactive” in each case. Also, the growth inhibition call in assay [3] is “inactive”.

Consider `C[C@H]1CN([C@@H](C)CO)S(=O)(=O)c2ccc(C#Cc3ccc(F)cc3)cc2O[C@H]1CN(C)C(=O)CN(C)C`, for which the cytotoxicity call in assay [1] and in assay [2] was “inactive” throughout. Also, the growth inhibition call in assay [3] is “active”.

On to `CN1C(=O)c2cc(NC(=O)c3ccc(F)cc3)ccc2OC[C@@H]2O[C@@H](CC(=O)N3CCOCC3)CC[C@H]21`, for which the cytotoxicity call in assay [1] is “inactive”. Moreover, the cytotoxicity call in assay [2] was “active”. Moreover, the growth inhibition call in assay [3] was “inactive”.

As to `C[C@H](CO)N1C[C@H](C)[C@@H](CN(C)S(=O)(=O)c2cccs2)Oc2c(NC(=O)C3CC3)cccc2C1=O`, the cytotoxicity call in assay [1] and in assay [2] was “inactive” throughout. Besides, the growth inhibition call in assay [3] is “inactive”.

As for `O=C(/C=C/c1ccc(O)c(O)c1)O[C@H]1[C@H](O)C[C@](O)(C(=O)O)C[C@H]1O`, the cytotoxicity call in assay [1] and in assay [2] was “inactive” each time. In addition, in assay [3], the growth inhibition call is “inactive”.

As for `C[C@@H]1CN([C@@H](C)CO)C(=O)c2cc(NS(=O)(=O)c3cn(C)cn3)ccc2O[C@H]1CN(C)C(=O)Nc1ccc2c(c1)OCO2`, the cytotoxicity call in assay [1] and in assay [2] was “inactive” each time. Further, the growth inhibition call in assay [3] is “inactive”.

For the compound `C[C@H]1CN([C@@H](C)CO)C(=O)Cc2cc(NC(=O)Nc3ccc(F)cc3)ccc2O[C@@H]1CN(C)C(=O)Nc1cccc2ccccc12`, the cytotoxicity call in assay [1] and in assay [2] was “inactive” in each case. In addition, the growth inhibition call in assay [3] was “inactive”.

Regarding `C[C@@H]1CN([C@H](C)CO)C(=O)Cc2cc(NC(=O)Nc3ccc(F)cc3)ccc2O[C@H]1CN(C)Cc1ccc(C(F)(F)F)cc1`, the cytotoxicity call in assay [1] and in assay [2] was “active” each time. The growth inhibition call in assay [3] is “inactive”.

Consider `C[C@H]1CCCCO[C@@H](CN(C)S(=O)(=O)c2cccs2)[C@@H](C)CN([C@@H](C)CO)C(=O)c2cc(NC(=O)Nc3ccc(C(F)(F)F)cc3)ccc2O1`, for which the cytotoxicity call in assay [1] and in assay [2] was “inactive” in each case. In addition, the growth inhibition call in assay [3] was “inactive”.

With `C[C@H](CO)N1C[C@H](C)[C@H](CN(C)Cc2ccc(-c3ccccc3)cc2)Oc2c(NS(=O)(=O)c3cccs3)cccc2C1=O`, the cytotoxicity call in assay [1] and in assay [2] was “inactive” throughout. Moreover, in assay [3], the growth inhibition call was “inactive”.

In the case of `CC(C)=C[C@H]1[C@@H](c2nc3ccc(Br)cc3[nH]2)C1(C)C`, the cytotoxicity call in assay [1] and in assay [2] was “inactive” in each case. For the same compound, the growth inhibition call in assay [3] was “inactive”.

For the compound `C[C@@H]1CN([C@H](C)CO)C(=O)c2c(c3ccccc3n2C)-c2ccccc2CO[C@@H]1CN(C)C(=O)Nc1ccccc1C(F)(F)F`, the cytotoxicity call in assay [1] and in assay [2] was “inactive” in each case. Further, the growth inhibition call in assay [3] is “inactive”.

Turning to `COc1ccc(CNC(=O)C[C@H]2CC[C@@H]3[C@H](COc4ccc(NC(=O)C5CC5)cc4C(=O)N3C)O2)cc1`, the cytotoxicity call in assay [1] and in assay [2] was “inactive” in each case. Further, in assay [3], the growth inhibition call is “inactive”.

Regarding `C[C@H]1CN([C@@H](C)CO)C(=O)Cc2cc(NC(=O)C3CC3)ccc2O[C@H]1CN(C)C(=O)Nc1ccccc1`, the cytotoxicity call in assay [1] and in assay [2] was “inactive” in each case. The growth inhibition call in assay [3] was “inactive”.

`COc1ccc(S(=O)(=O)N(C)C[C@@H]2Oc3ccc(NS(=O)(=O)c4cn(C)cn4)cc3C(=O)N([C@@H](C)CO)C[C@@H]2C)cc1`: the cytotoxicity call in assay [1] and in assay [2] was “inactive” throughout. Besides, the growth inhibition call in assay [3] is “inactive”.

(Values after the antibiotic and cytotoxicity screens of Wong et al. (2023).)
